Reference: PubChem BioAssay AID488969 (Vanderbilt High Throughput Screening Facility, 2010)
The full ranking holds about 110,000 compounds; the median of “z-score” is about -0.1, and the highest 2% start at about 2. The list shows a part of the results. Active and inactive are the calls of the source.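 The calls were made as follows: active = z-score in the third read window above 3 or below -3; inactive = the rest.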

Molecular target: Metabotropic glutamate receptor 8 (Rattus norvegicus) (UniProt P70579)
Experiment: mGluR8 Gi/Go-coupled signaling modulation – cell-based, rat, thallium flux, HTS, primary screen (AID 488969)
Conditions: HEK293 rat mGluR8, GIRK (G protein-gated inwardly rectifying potassium channel) thallium flux, FluoZin2; at 10 µM; stronger effect = higher value; submaximal glutamate (EC20) added with thallium

UniProt P70579, sequence (P70579 whole entry, looked up): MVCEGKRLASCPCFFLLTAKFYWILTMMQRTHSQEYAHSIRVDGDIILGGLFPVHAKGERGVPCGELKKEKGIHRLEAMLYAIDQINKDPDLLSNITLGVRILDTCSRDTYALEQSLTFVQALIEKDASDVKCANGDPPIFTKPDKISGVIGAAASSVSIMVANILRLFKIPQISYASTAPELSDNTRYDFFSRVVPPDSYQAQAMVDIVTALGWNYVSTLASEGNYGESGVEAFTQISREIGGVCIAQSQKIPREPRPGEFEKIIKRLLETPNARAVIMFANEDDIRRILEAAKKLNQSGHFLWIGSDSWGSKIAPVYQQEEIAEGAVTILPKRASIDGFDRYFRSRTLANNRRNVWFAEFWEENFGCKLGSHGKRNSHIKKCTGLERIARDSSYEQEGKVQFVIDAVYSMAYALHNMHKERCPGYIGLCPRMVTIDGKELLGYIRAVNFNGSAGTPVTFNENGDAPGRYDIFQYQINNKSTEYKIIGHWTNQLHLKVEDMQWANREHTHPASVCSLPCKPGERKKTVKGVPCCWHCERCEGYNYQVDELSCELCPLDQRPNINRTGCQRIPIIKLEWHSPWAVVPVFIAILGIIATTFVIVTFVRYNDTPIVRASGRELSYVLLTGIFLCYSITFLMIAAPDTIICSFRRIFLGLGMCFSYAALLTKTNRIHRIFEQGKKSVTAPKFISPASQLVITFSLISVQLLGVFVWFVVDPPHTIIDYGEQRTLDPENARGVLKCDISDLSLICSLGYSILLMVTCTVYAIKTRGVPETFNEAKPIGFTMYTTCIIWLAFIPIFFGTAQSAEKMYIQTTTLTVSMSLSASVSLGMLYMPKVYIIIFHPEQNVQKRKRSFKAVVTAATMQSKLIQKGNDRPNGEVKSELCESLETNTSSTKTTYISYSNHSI

**Q.** For `C=CCNC(=S)NNC(=O)c1ccc(Br)cc1`, which z-score is on record?
**A.** The z-score was 1.01.

**Q.** How did the z-score turn out when `COc1ccc(CCNC(=O)C2CCN(C(=O)NC3CCCCC3)CC2)cc1` was run?
**A.** Its z-score is -0.187.

**Q.** Which z-score does the source give for `Cc1ccc(CNc2ncccc2-c2nc3cc(Cl)ccc3o2)cc1` here?
**A.** Its z-score is 0.176.

**Q.** `CCOc1ccc(C(=O)NCC(=O)OCC(=O)N2CCC(C)CC2)cc1` was tested. Which z-score did it give?
**A.** Its z-score is 0.0156.

**Q.** Which z-score does the source give for `NC(=O)Cn1nnc(-c2ccccc2NC(=O)c2cnccn2)n1` here?
**A.** Its z-score is 0.313.

**Q.** For `CCCCCn1c(CNC(=O)CCC)nc2ccccc21`, which z-score is on record?
**A.** Its z-score is -0.492.

**Q.** How did the z-score turn out when `O=c1oc(-c2ccco2)nc2ccccc12` was run?
**A.** Its z-score is -0.973.

**Q.** How did the z-score turn out when `O=C(c1ccc(S(=O)(=O)N2CCOCC2)cc1)N1CCN(c2cccc(Cl)c2)CC1` was run?
**A.** Its z-score is -0.306.

**Q.** For `CCSc1nnc(-c2cccc(S(=O)(=O)N(C)C)c2)n1-c1cc(OC)ccc1OC`, which z-score is on record?
**A.** Its z-score is -0.248.

**Q.** How did the z-score turn out when `C#CC[N+]1(CC#Cc2ccc(C)cc2)CCCCC1` was run?
**A.** Its z-score is -0.00534.

**Q.** For `Cc1[nH]c2ccccc2c1/C=N/Nc1ccc([N+](=O)[O-])cc1`, which z-score is on record?
**A.** The z-score was -0.0633.

**Q.** How did the z-score turn out when `CCOC(=O)c1c(NC(=O)CSc2n[nH]c(CNc3ccccc3)n2)sc(C)c1C` was run?
**A.** The z-score was 0.246.

**Q.** For `O=C(c1cccc(N2CCCC2=O)c1)N1CCOCC1`, which z-score is on record?
**A.** Its z-score is 0.00471.

**Q.** `C=CCNc1nc(N2CCOCC2)nc(N2CCOCC2)n1` was tested. Which z-score did it give?
**A.** Its z-score is 0.263.

**Q.** How did the z-score turn out when `COc1ccc(N(CC(=O)N2CCc3ccccc3C2)S(=O)(=O)c2c(C)[nH]c(=O)[nH]c2=O)cc1` was run?
**A.** Its z-score is 0.0182.

**Q.** How did the z-score turn out when `CCCC(=O)Nc1ccccc1Sc1ncnc2scc(-c3ccccc3)c12` was run?
**A.** The z-score was -1.02.

**Q.** How did the z-score turn out when `O=C(NC1CCS(=O)(=O)C1)c1cccc(S(=O)(=O)N2CCOCC2)c1` (centres undefined) was run?
**A.** The z-score was 0.0358.

**Q.** For `COc1ccc(/C=C2\CN(Cc3ccccc3)C/C(=C\c3ccc(OC)cc3OC)C2=O)c(OC)c1`, which z-score is on record?
**A.** The z-score was -0.152.

**Q.** Which z-score does the source give for `Cc1ccc(-n2[nH]c(C)c(C=Nc3ccc(S(=O)(=O)Nc4nccs4)cc3)c2=O)cc1C` here?
**A.** The z-score was 0.00623.

**Q.** `CC(C)CCNC(=O)CN(Cc1cccs1)C(=O)CCC(=O)Nc1nccs1` was tested. Which z-score did it give?
**A.** Its z-score is 0.0871.

**Q.** With `CCOC(=O)C1CCCN(C(=O)c2cnn3c(C(F)(F)F)cc(-c4ccccc4)nc23)C1` (centres undefined) as the molecule, how does the z-score read?
**A.** The z-score was -2.11.

**Q.** Which z-score does the source give for `N/C(CSc1nc(-c2ccccc2)c(-c2ccccc2)o1)=N\O` here?
**A.** The z-score was -0.125.

**Q.** For `Cc1cc(-c2ccccc2)n2nc(C)c(C#N)c2n1`, which z-score is on record?
**A.** Its z-score is -0.193.

**Q.** `CCc1cc2c(=O)n(-c3ccccc3)cnc2s1` was tested. Which z-score did it give?
**A.** The z-score was 0.606.

**Q.** How did the z-score turn out when `CC(C(=O)O)N1C(=O)/C(=C/c2cccn2C)SC1=S` (centres undefined) was run?
**A.** Its z-score is -0.0659.

**Q.** Which z-score does the source give for `CCC(C)(C)NC(=O)C(c1ccco1)N(C(=O)Cn1nnc2ccccc21)c1ccc2c(c1)OCO2` (centres undefined) here?
**A.** Its z-score is -0.197.

**Q.** How did the z-score turn out when `O=C(Nc1ccccc1-c1nc2ccccc2s1)C1=COCCO1` was run?
**A.** The z-score was -0.321.

**Q.** Which z-score does the source give for `CS(=O)(=O)N(CC(=O)N1CCC(C(N)=O)CC1)c1ccc(Cl)c(C(F)(F)F)c1` here?
**A.** The z-score was -0.126.

**Q.** For `O=C(/C=C/c1ccccc1)NC1CC2CCC1C2` (centres undefined), which z-score is on record?
**A.** The z-score was -0.0435.

**Q.** With `COc1ccc(C/C(N)=N/n2cnnc2)cc1Cl` as the molecule, how does the z-score read?
**A.** Its z-score is -0.163.

**Q.** For `Cc1ccc(N/N=C/c2ccc3c(c2)OCCO3)cc1Cl`, which z-score is on record?
**A.** Its z-score is 0.0954.

**Q.** For `O=C(c1ccc(S(=O)(=O)c2ccccc2Cl)c([N+](=O)[O-])c1)N1CCCCCC1`, which z-score is on record?
**A.** The z-score was 1.74.

**Q.** With `COc1ccccc1-c1nc2ccccc2nc1-c1ccccc1` as the molecule, how does the z-score read?
**A.** Its z-score is 1.12.

**Q.** `COc1ccc(CCC(=O)Nc2cccc(Cl)c2)cc1` was tested. Which z-score did it give?
**A.** Its z-score is 0.0236.

**Q.** How did the z-score turn out when `Cc1cccn2c(=O)c(C=NCCO)c(NCc3ccco3)nc12` was run?
**A.** Its z-score is -0.648.

**Q.** Which z-score does the source give for `N#Cc1c(N)nc2c(c1-c1ccc(Br)s1)CCCC2` here?
**A.** The z-score was -0.0949.

**Q.** How did the z-score turn out when `O=c1c[n+]([O-])c2ccccc2n1OCc1c(F)cccc1F` was run?
**A.** Its z-score is -0.298.

**Q.** `Cc1ccc(S(=O)(=O)N2CCN(S(=O)(=O)c3ccc(C)cc3)C2c2ccccc2)cc1` was tested. Which z-score did it give?
**A.** The z-score was -0.0627.

**Q.** `O=C(CCc1nc2ccccc2[nH]1)Nc1ccc2c(c1)OCO2` was tested. Which z-score did it give?
**A.** Its z-score is 0.16.

**Q.** How did the z-score turn out when `CCNCCC(=O)N1c2ccccc2Sc2ccc(NC(=O)OCC)cc21` was run?
**A.** Its z-score is 0.729.

**Q.** For `CC(C)C(NC(=O)C1CCCCC1)C(=O)NC1=NCCS1` (centres undefined), which z-score is on record?
**A.** Its z-score is -0.245.

**Q.** Which z-score does the source give for `COc1ccc(CCN2C(=O)C(Oc3ccccc3C)C2c2ccc3c(c2)OCO3)cc1` (centres undefined) here?
**A.** Its z-score is -0.223.

**Q.** `CCCCCC1CCC(C(=O)NNC(=S)NCC)CC1` (centres undefined) was tested. Which z-score did it give?
**A.** Its z-score is 0.796.

**Q.** How did the z-score turn out when `COc1ccc(-c2cc(C(=O)O)c(C)o2)cc1OC` was run?
**A.** Its z-score is 0.776.

**Q.** How did the z-score turn out when `Cc1cc(C(=O)OCC(=O)Nc2cc(S(=O)(=O)N3CCOCC3)ccc2Cl)c(C)o1` was run?
**A.** Its z-score is -0.838.

**Q.** How did the z-score turn out when `O=c1[nH]cnc2c1cnn2Cc1ccccc1` was run?
**A.** Its z-score is 0.446.

**Q.** `CC(=O)Nc1ccc(-c2nnc(SCc3c(C)cc(C)cc3C)n2C)cc1` was tested. Which z-score did it give?
**A.** The z-score was -0.514.

**Q.** Which z-score does the source give for `Cc1ccc(OCC(=O)Nc2ccc(Cl)cc2)c(-n2nc3ccccc3n2)c1` here?
**A.** The z-score was -0.38.

**Q.** `CC(=O)Oc1cc2c(cc1Cl)C1(CC(c3ccccc3Cl)O2)CC(C)(C)NC(=S)N1` (centres undefined) was tested. Which z-score did it give?
**A.** The z-score was 0.197.

**Q.** Which z-score does the source give for `COc1cccc(-c2nnc(Nc3nc4c(F)cccc4s3)o2)c1` here?
**A.** Its z-score is active: 17.4.

**Q.** How did the z-score turn out when `COc1cccc(-c2nnc(NC(=O)c3ccc(S(=O)(=O)N(CC(C)C)CC(C)C)cc3)o2)c1` was run?
**A.** The z-score was -0.14.

**Q.** `Cc1cccc(OCCCC(=O)Nc2ccc(S(=O)(=O)Nc3onc(C)c3C)cc2)c1C` was tested. Which z-score did it give?
**A.** Its z-score is 0.102.

**Q.** Which z-score does the source give for `CC(C)(C)NC(=O)C1Cc2ccccc2CN1C(=O)Nc1ccccc1Cl` (centres undefined) here?
**A.** The z-score was -0.221.

**Q.** With `Cc1cc(=O)oc(C)c1C(=O)N1CCN(Cc2ccc3c(c2)OCO3)CC1` as the molecule, how does the z-score read?
**A.** The z-score was 0.55.

**Q.** How did the z-score turn out when `N#CCc1c(C#N)c(N)nc(N2CCN(S(=O)(=O)c3ccccc3)CC2)c1C#N` was run?
**A.** Its z-score is -0.145.

**Q.** `Cc1cccc(NC(=O)CCC(=O)OCC(=O)c2ccc(Oc3ccc([N+](=O)[O-])cc3)cc2)c1` was tested. Which z-score did it give?
**A.** The z-score was -0.263.

**Q.** For `C1=C(c2ccccc2)N2CCN=C2S1`, which z-score is on record?
**A.** The z-score was 0.0464.

**Q.** For `CC(=O)CSc1nnc(Cc2ccc3c(c2)OCO3)o1`, which z-score is on record?
**A.** Its z-score is 0.172.

**Q.** How did the z-score turn out when `O=C(COC(=O)C1CCCCC1)Nc1ccc(N2CCCCC2)cc1` was run?
**A.** The z-score was -0.4.

**Q.** `COc1cc(-c2nnc(COC(=O)c3cc(C)nc4ccc(C)cc34)o2)cc(OC)c1OC` was tested. Which z-score did it give?
**A.** The z-score was -0.548.

**Q.** For `CC(/C=N\NC(=O)c1cc(C)oc1C)=C\c1ccccc1`, which z-score is on record?
**A.** Its z-score is -0.0428.

**Q.** Which z-score does the source give for `CC1Cc2cc(/C(O)=C3/C(=O)C(=O)N(Cc4ccco4)C3c3cccs3)ccc2O1` (centres undefined) here?
**A.** Its z-score is -0.913.

**Q.** How did the z-score turn out when `O=C(O)c1ccccc1OCCOCCOc1ccccc1C(=O)O` was run?
**A.** Its z-score is 0.114.

**Q.** For `Cc1ccc(C(C)NC(=O)/C(C#N)=C\c2c(C)[nH]c3ccccc23)cc1` (centres undefined), which z-score is on record?
**A.** Its z-score is -0.139.

**Q.** How did the z-score turn out when `Cc1cc2c(c(=O)n1C)C(Cc1ccccc1)C(C#N)=C(N)O2` (centres undefined) was run?
**A.** Its z-score is -0.0341.

**Q.** Which z-score does the source give for `CCOP(=O)(OCC)C(NC(=O)Nc1ccccc1)c1ccccc1` (centres undefined) here?
**A.** Its z-score is 0.0239.

**Q.** Which z-score does the source give for `Cc1cc(/C=C(/C#N)c2cccc(F)c2)c(C)n1-c1cccnc1` here?
**A.** The z-score was 0.326.

**Q.** How did the z-score turn out when `Cc1nn(-c2ccccc2)c(Cl)c1C1C(C#N)=C(N)Oc2c1c(C)nn2-c1ccccc1` (centres undefined) was run?
**A.** Its z-score is -0.407.

**Q.** `CCCC(=O)N1CCN(c2ccc(NC(=O)c3ccc(Br)o3)cc2)CC1` was tested. Which z-score did it give?
**A.** Its z-score is -0.188.
